Source: the supplement of paper PMC10338343
± gives the standard deviation. The entries are a selection whose mix differs from that of the whole data set.

Test system: MIWI (PIWIL1) piRISC loaded with L1MC piRNA (30 nt)
Assay: pre-steady-state target cleavage rate (min^-1); MIWI and MILI are mouse PIWI proteins and EfPiwi is from a freshwater sponge; tags in brackets are library labels; higher = faster piRNA-guided slicing of the target
Settings: guide: L1MC piRNA 5'p-UAACUAAAUACUAUGCAAGCUGUAGGUCCU
Procedure, shortened: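 In HEPES–potassium acetate buffer at 33 °C, […] transcribed, DNA-blocked target RNA library was mixed with 1 nM active affinity-purified piRISC carrying one synthetic guide, with or without 500 nM GTSF1 partner protein, for 0–8 or 0–960 min. Uncleaved targets were sequenced and normalised to depth and to weakly complementary targets; three trials were pooled and k3 was capped at 0.0001 min^-1. The pre-steady-state cleavage rate followed from a burst-and-steady-state fit.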

[1] = auxiliary factor: 500 nM mouse GTSF1
[2] = auxiliary factor: none (no GTSF1)
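Also: 1 nM active piRISC with 0.1 nM target library at 33 °C single turnover.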

Row | Sequence | pre-steady-state target cleavage rate [1] | pre-steady-state target cleavage rate [2]
1 | UCCUCCUACACCAUGCAUAGUAUUUAGUUA | 0.808 ± 0.032 | 0.0134 ± 0.002
2 | AGGAGGUACAGCUUGCAUAGUAUUUUCAAA | 0.206 ± 0.048 | 0.00393 ± 0.002
3 | UCCUCCUAACAGCUUGCAUAGUAUUUAGUUA | 0.591 ± 0.025 | 0.0508 ± 0.0092
4 | UCCUGGAUGAAGCUUGCAUAGUAUUUAGUUA | 0.716 ± 0.035 | 0.0807 ± 0.017
5 | UCCUGGUACAGCUAGCAUAGUUUUUAGUUA | 0.191 ± 0.031 | 0.0196 ± 0.0048
6 | UCCUGGUACAGCUUGCUUAGUAUUUAGUAA | 0.504 ± 0.064 | 0.0169 ± 0.0044
7 | UCCUGCUUCAGCUUGCAUAGUAUUUAGAUA | 0.377 ± 0.035 | 0.0196 ± 0.0056
8 | UCCUGGUACAGCUUGCAUAGAAUUUAGUAA | 0.278 ± 0.078 | 0.0057 ± 0.0033
9 | AGGACCUACAGCUUGGAUUGUAUUUAGUUA | 0.643 ± 0.036 | 0.0162 ± 0.0038
10 | UGGACCUACAGCAUGCAUAGUAUAUAGUUA | 0.976 ± 0.069 | 0.0194 ± 0.0041
11 | UCCUGGAUGUGCUUGCAUAGUAUUAUAGUUA | 0.179 ± 0.02 | 0.0145 ± 0.004
12 | UCGACCUACAGGUUGCAUAGUAUAUAGUUA | 0.675 ± 0.048 | 0.0232 ± 0.0054
13 | UCGACCUACAGCUUGCAUAGUAUCUUAGUUA | 1.06 ± 0.049 | 0.0281 ± 0.0081
14 | UGGACCUACAGCUUGCAUGUAUUUAGUUA | 0.353 ± 0.055 | 0.00423 ± 0.0025
15 | UCCUGGAUGUGCUUGCAUAGUAUUUAGUGA | 0.294 ± 0.018 | 0.0269 ± 0.0064
16 | UCCUGGAUGUCCUAUGCAUAGUAUUUAGUUA | 0.0196 ± 0.0047 | 0.00329 ± 0.0021
17 | UCCUGCUACAGCUUGCAUAGUAUUUUCUUA | 0.121 ± 0.019 | 0.00565 ± 0.0019
18 | UCCUGGUACAGCUAUGCAUAGUAUUUAGUUA | 0.795 ± 0.037 | 0.0185 ± 0.0039
19 | AGGACCUACAGCUUGCAUAGUAUUUACAAA | 0.403 ± 0.055 | 0.00917 ± 0.0037
20 | UCCUCCUACAGCAUGCAUAGUAAUUAGUUA | 0.719 ± 0.049 | 0.00708 ± 0.0023

Row | Sequence | pre-steady-state target cleavage rate [1] | pre-steady-state target cleavage rate [2]
21 | UCCUGGUACAGCUUGCAUAGUAAUUAGAAA | 0.19 ± 0.04 | 0.00377 ± 0.0035
22 | UCCACGUACAGCUUGCAUACUAUUUAGUUA | 0.376 ± 0.021 | 0.042 ± 0.0089
23 | UGGUCCUACAGCUUGCAUAGUAUUAAGUUA | 0.496 ± 0.036 | 0.0291 ± 0.0046
24 | UCCUGGUUCAGCUUGCAUAGUAUUUUCAAA | 0.11 ± 0.025 | 0.00359 ± 0.0028
25 | UGCACCUACAGCAUGCAUAGUAUUUAGUUA | 0.998 ± 0.092 | 0.0271 ± 0.0047
26 | UCCUGGUACAGCUUGCAAAGUAUUUAGUAA | 0.311 ± 0.039 | 0.0192 ± 0.0039
27 | UCCACCUACAGCUUGCAUAGUAUUUAGGUA | 0.3 ± 0.054 | 0.00404 ± 0.0029
28 | UCCACCUUCAGCUUGCAUAGUAUUUAGUUA | 0.933 ± 0.045 | 0.0531 ± 0.0087
29 | UCCUGCUACAGCUUGGAAAGUAUUUAGUUA | 0.903 ± 0.053 | 0.00754 ± 0.0024
30 | UCCACCUACAGCUUGCAUCGUAUUUAGUUA | 0.455 ± 0.015 | 0.0298 ± 0.0056
31 | UCCUCCACAGCUUGCAUAGUAUUUAGUUA | 0.736 ± 0.027 | 0.0534 ± 0.011
32 | UCCUGCUACAGCUUCGCAUAGUAUUUAGUUA | 0.737 ± 0.032 | 0.00649 ± 0.0024
33 | AGGACCUACAGCAUGCAUAGUAUUUUGUUA | 0.928 ± 0.078 | 0.0308 ± 0.0084
34 | UCGACGUACAGCUUGCAUAGUAUAUAGUUA | 0.801 ± 0.037 | 0.031 ± 0.0075
35 | UGGACCUACAGCUUGCUUAGUAAUUAGUUA | 0.866 ± 0.063 | 0.0153 ± 0.005
36 | UCCUGGUACUCCUUGCAUAGUAUUUAGUAA | 0.0947 ± 0.021 | 0.00423 ± 0.0027
37 | UCGACCUACAGCUUGCAAAGUAUUUUGUUA | 0.824 ± 0.041 | 0.0149 ± 0.0024
38 | UCCUGCUACAGCUUGCAAUGUAUUUAGUUA | 0.516 ± 0.048 | 0.0088 ± 0.0023
39 | UGGACCUACAGCUUGGAUAGUAUAUAGUUA | 0.785 ± 0.051 | 0.0287 ± 0.0073
40 | UCCUCCUACAGCUUGCUUAGUAUUUAGUUA | 1.28 ± 0.06 | 0.0241 ± 0.0053

Row | Sequence | pre-steady-state target cleavage rate [1] | pre-steady-state target cleavage rate [2]
41 | UCCUGGUACAGCUUGAAUAGUAUUUAGUUA | 0.432 ± 0.087 | 0.0124 ± 0.0031
42 | UCCACCUACAGCUUGCAAAGUAUUAAGUUA | 0.431 ± 0.034 | 0.00855 ± 0.0023
43 | UCCACCUACAGCUUGCUUAGUAAUUAGUUA | 0.605 ± 0.029 | 0.0116 ± 0.0032
44 | UCGACCUACAGUUUGCAUAGUAUUUAGUUA | 1.37 ± 0.054 | 0.0619 ± 0.0092
45 | UCGACCAACAGCUUGCAUAGUAUUAAGUUA | 0.715 ± 0.038 | 0.0344 ± 0.0084
46 | UCCUCCUUGUGCUUGCAUAGUAUUUAGUUA | 0.62 ± 0.033 | 0.0361 ± 0.0082
47 | UCCUGGAUGAGCAUUGCAUAGUAUUUAGUUA | 0.497 ± 0.05 | 0.016 ± 0.0046
48 | UCGACCUACAGCUUGCAUAGUAUUAAGAAA | 0.387 ± 0.044 | 0.00277 ± 0.0027
49 | UCCUGCUACAGCUUGCAUAGUAUCUUAGUUA | 0.763 ± 0.061 | 0.0147 ± 0.003
50 | UCCUGGAUGAGCUUUGCAUAGUAUUUAGUUA | 0.655 ± 0.043 | 0.0151 ± 0.0047
51 | UCCUGGAUGUCGUUGCAUAGUAUUUAGUGA | 0.0258 ± 0.0089 | 0.00328 ± 0.0026
52 | UCCUGGUACAGCUUGCUUAGAAUUUAGUUA | 0.282 ± 0.073 | 0.00965 ± 0.0037
53 | UCCUGCUUCAGCUUGCAUACUAUUUAGUUA | 0.371 ± 0.016 | 0.0289 ± 0.0066
54 | UCCUGGAUCAGCUUGCAUAGAAUUAAGUUA | 0.0685 ± 0.0098 | 0.00717 ± 0.0037
55 | UCCUGGUACACCUUGCAUAGUAUUUAGAUA | 0.116 ± 0.042 | 0.00446 ± 0.0026
56 | UCCUGGAUGUGCUUGCAGAGUAUUUAGUUA | 0.0473 ± 0.0088 | 0.0137 ± 0.0038
57 | AGGACCUACAGCUUGCAUAGUAUUUACUUA | 0.41 ± 0.043 | 0.0548 ± 0.011
58 | UGGACCUACUGCUUGCAUAGUAUUUAGUAA | 0.708 ± 0.039 | 0.0421 ± 0.008
59 | UGGACCUACUGCUUGCAUACUAUUUAGUUA | 0.29 ± 0.02 | 0.0286 ± 0.0067
60 | UCCACCUAGAGGUUGCAUAGUAUUUAGUUA | 1.16 ± 0.17 | 0.0225 ± 0.0041
